In the supplement of paper PMC3334620:
The full ranking holds about 33,000 sequences; the median of “E-score (-0.5 to 0.5)” is about -0.054, and the highest 2% start at about 0.39. The list shows a part of the results.

Each sequence was assayed against Ylr278c (UniProt Q05854) (assay: PBM E-score (8-mer binding enrichment) (E-score (-0.5 to 0.5)); higher = stronger / more preferred TF binding; most listed sequences are background and not binding sites). Details: protein concentration: 200 nM; construct: GST-DNA-binding domain.
How it was run: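 Universal all-10-mer Agilent arrays, fresh or stripped once, were converted to double-stranded form by primer extension. GST-tagged yeast transcription factors from PURExpress in vitro transcription/translation, full-length or DNA-binding domain only, were applied at about 100-200 nM and detected with fluorescent anti-GST. After masliner normalisation, the Universal PBM Analysis Suite scored each ungapped eight-base word together with its reverse complement by E-score.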
AGGGTAAC was tested, and the “PBM E-score” value was -0.22. With CGATGAGA the “PBM E-score” value was 0.0144. CCTATGTA was tested, and the “PBM E-score” value was -0.251. In the case of AGCAGGTA, the “PBM E-score” value is reported as -0.107. In the case of GTATAGAC, the “PBM E-score” value is reported as -0.087. For ACCAAGGC, the “PBM E-score” value was -0.0919. CGCAAACG was tested, and the “PBM E-score” value was 0.0438. For CAAACCGG, the “PBM E-score” value was 0.287. CGGCGCTA was tested, and the “PBM E-score” value was 0.163. With GCAGATGA the “PBM E-score” value was -0.064. In the case of GCTCTGAA, the “PBM E-score” value is reported as -0.289. In the case of ATCCGGGA, the “PBM E-score” value is reported as 0.332. For AGTGTCCG, the “PBM E-score” value was 0.272. With ATAGTCAC the “PBM E-score” value was -0.153. With AGGATATC the “PBM E-score” value was -0.0439. With AAGGTCCC the “PBM E-score” value was -0.138. For ACGGTAAC, the “PBM E-score” value was 0.0974. In the case of ACGAATCT, the “PBM E-score” value is reported as -0.113. With GCCACAAA the “PBM E-score” value was -0.0336. CAGACCGA was tested, and the “PBM E-score” value was 0.15. In the case of CTTGATCA, the “PBM E-score” value is reported as -0.0711. For CGATTCAA, the “PBM E-score” value was -0.0611. In the case of ATCACACC, the “PBM E-score” value is reported as 0.132. In the case of CATGTGGA, the “PBM E-score” value is reported as -0.145. With GGGCTCAC the “PBM E-score” value was -0.0724. ACCAGGTC was tested, and the “PBM E-score” value was -0.011. With AGACGAAC the “PBM E-score” value was -0.185. In the case of CTCTACAC, the “PBM E-score” value is reported as -0.136. With GGTCGGAA the “PBM E-score” value was 0.338. In the case of AGGACGTA, the “PBM E-score” value is reported as -0.126. ATGCACAG was tested, and the “PBM E-score” value was -0.214. For AAAACAGG, the “PBM E-score” value was -0.221. For CAGTCAAC, the “PBM E-score” value was -0.246. For CAGTTTTC, the “PBM E-score” value was -0.00053. AGCCTGAG was tested, and the “PBM E-score” value was -0.368. For AGACAACC, the “PBM E-score” value was 0.101. AATGTCAA was tested, and the “PBM E-score” value was -0.0519. For CATTAAGA, the “PBM E-score” value was -0.311. In the case of ACATAAAG, the “PBM E-score” value is reported as -0.0765. In the case of AGCAGCCC, the “PBM E-score” value is reported as -0.119. GGGCTCTA was tested, and the “PBM E-score” value was -0.0272. With TATGCAGA the “PBM E-score” value was -0.196. For ACAGGTTC, the “PBM E-score” value was -0.235. For AAGTAGGA, the “PBM E-score” value was -0.313. CGATACCG was tested, and the “PBM E-score” value was 0.147. CCCATCGA was tested, and the “PBM E-score” value was -0.177. For GTAAGTGA, the “PBM E-score” value was -0.0628. CGATATGA was tested, and the “PBM E-score” value was -0.0469. In the case of ACTTGCTA, the “PBM E-score” value is reported as -0.123. With CTCCTCCC the “PBM E-score” value was 0.0194. For AATTGCTA, the “PBM E-score” value was -0.0851. ACCCCCGT was tested, and the “PBM E-score” value was 0.133. For CCTTACGC, the “PBM E-score” value was -0.0842. In the case of AATTACTA, the “PBM E-score” value is reported as -0.0423. With CATATTAC the “PBM E-score” value was -0.0175. With CATACTCC the “PBM E-score” value was 0.339. For AGTTGCTG, the “PBM E-score” value was -0.044. For AAGATACG, the “PBM E-score” value was -0.00117. CGCATAAG was tested, and the “PBM E-score” value was -0.00895. In the case of GCTGAAAC, the “PBM E-score” value is reported as 0.061. In the case of AATGCTGG, the “PBM E-score” value is reported as 0.0448. In the case of AGACTCGC, the “PBM E-score” value is reported as -0.0408. For ACGGGGCA, the “PBM E-score” value was 0.00354. In the case of ATGAGTCG, the “PBM E-score” value is reported as -0.207. In the case of GACAGCTA, the “PBM E-score” value is reported as -0.323. With ATTCTGGG the “PBM E-score” value was -0.105. With CCCGCGGA the “PBM E-score” value was 0.409. In the case of AAACCAAG, the “PBM E-score” value is reported as -0.111. For ATACCAAC, the “PBM E-score” value was -0.0752. AATTGCTG was tested, and the “PBM E-score” value was 0.0356. ACACGGCT was tested, and the “PBM E-score” value was 0.0922. With CCCTTGCA the “PBM E-score” value was -0.207. GGAGACGA was tested, and the “PBM E-score” value was 0.241. For GCCATGAA, the “PBM E-score” value was -0.0869. For CATACGCG, the “PBM E-score” value was 0.0999. In the case of ATGCGGCC, the “PBM E-score” value is reported as -0.0109. With GTCAGACA the “PBM E-score” value was -0.166. In the case of CGGCCACC, the “PBM E-score” value is reported as 0.27. With TAACCCCA the “PBM E-score” value was 0.0189. With GCATCGAC the “PBM E-score” value was -0.19. With CCAATGAC the “PBM E-score” value was -0.323. With GATCGTTA the “PBM E-score” value was -0.0309. CCAGGCGA was tested, and the “PBM E-score” value was -0.213. In the case of ATCAGCTG, the “PBM E-score” value is reported as -0.148. With CTTCCGAA the “PBM E-score” value was 0.371. With TCCTAAAA the “PBM E-score” value was -0.127.
